Read counts are not given, so values of variants with three or more changes are uncertain.

B1: LINE1-full (parent)
chain: UACGUAGGUGGUUUUCCCCUGAUAGUGCUAAGGGGGCCUGGAAGUUUGGACUGGGCAGAGCUCAACACAGCGUGGCAAAGUGGCUGUGGCUAGACUGCCUCUCUGGAUUCCUCGUCACUCAGCAGGGCAUCUCUGAGAGAAAUGCC

In the data set the parent is B1. Kind of data set: self-cleavage, relative activity (ratio to wild type); higher = more cleavage; in vitro, sequencing; the parent is a self-cleaving ribozyme.
In the case of U26C U39C U52C A59U U87A A140G, the self-cleavage was determined as 0.24. As for U26A U100C U134C, the figure is 0.94. As for U26A A94G U104C, the self-cleavage was found to be 0.

As for U26C A30C A64G, the self-cleavage is 0. The result for U26A A42G C68U U104A reads 0.07; that for U26C A94C U115A, 0.08; that for U26A A31G A43G U115C C118U, 0.84. Turning to U29C C38U A77U, the self-cleavage is 0.98.

Turning to U29C A42G A77C U81A, the self-cleavage came to 2.19. In the case of U26A A117G A136G, the self-cleavage was 1.06. The result for C28G A77G U102C A121U reads 1.15; that for U29C A43G A77C, 0.66; that for U29A G54A U73C, 0.42.

As for U29A A67U A136G, the self-cleavage amounted to 0.18. For the variant U26G U47C G105A A117G U119C, the self-cleavage came to 1.57. U26C U96G A121G: the self-cleavage was found to be 0.84. The result for U29C G54A A67U U134A A138G reads 0.08; that for G27A A42G A50G A138G, 0.28; that for U29C G53A U62C, 0.12. The result for U26C A50G A57U U130C reads 0; that for U26A U39C A42U A67U A79G U87C G137A, 0; that for C28U A57G A142G, 0.59. As to C28A A43C U62C A124G C146U, the self-cleavage came out at 0. As for U26C U47G U81A A129G U134G, the figure is 1.31. As for U26C C111U U119A, the figure is 1.58; as for U26C A57U U112C A140G, 0.1. As for U26C U104C A140G U143A, the figure is 1.13. Consider U29C C90U G122A, for which the self-cleavage is 0.11. For U26C A43U U62C G82A, the self-cleavage amounted to 0.42. As for U26C U85C A138G, the figure is 0.28.

As to U26G G32A U39C U45C, the self-cleavage came out at 0.91.

G27U A43G U62C U100C A124U: the self-cleavage was 0.34. As for U29C G32A U52A, the figure is 0.92.

U26C U73G C99A U112C: the self-cleavage was determined as 0.43. The result for U29C A69U U112C reads 0.13; that for U26A U81C G106A, 1.15; that for U26C G34A U134C, 1.51. The result for U29C U62A A69G reads 0. In the case of U29C A69U A140G, the self-cleavage came to 0.05. U29A U96C A142G: the self-cleavage was found to be 0.03. The result for U29A U45C U73C reads 1.53. The result for U26C U73C U81A A129U reads 2.35; that for U26C A57G U143A, 0.69; that for U29C A117C A138G, 1.63.

Turning to U29A G35A A117G, the self-cleavage worked out at 1.61. The result for U26C U62A U115G reads 0. As for U26C U52A A77G U91C A138U, the figure is 1.08; as for U29C U46A A69U A141G, 0.09. Take U26A A64G G82A A140U: the self-cleavage came to 0.29. The result for U26C G49C U115A U132C reads 1.67; that for U26C A43G U132C, 0.42. The result for U29C A30U G34A A65U U143C reads 0.25; that for U26C A69G G88A A138G, 0.07; that for U26C A78G A124G G125U, 1.73. The result for U26C U104A C116U reads 1.1; that for U26A C38U C76U, 1.01; that for U26C U132C A141G, 0.71. For U26A G32A A57G U102C, the self-cleavage was 0.15.

In the case of G27A A43G U47C A121G, the self-cleavage came to 2.6.

Regarding U26C U47A U109C, the self-cleavage stood at 0.72. With U29A A31U G122U, the self-cleavage is 1.01.

In the case of U29C U46C C113G U130C, the self-cleavage was 1.84. On to U29C A79G A136G, for which the self-cleavage stood at 1.06. The result for U29C U100C A141G reads 1.74; that for U26A A42G U47A A50U A69G A129U, 0.07; that for U29A A30G U47A A50G C146G, 1.12. With G27A A30U U45C U81C U112A, the self-cleavage is 0.92. The result for U29C A50G G55C U85C reads 0; that for U26C U29C A67U A136G, 0.38.

In the case of U26A A42G U62C A69G C110U U134G A142G, the self-cleavage came to 0. The result for C28U U39A A92G reads 0.08; that for U26C G125A A138G A140G, 1.87; that for U29C A67G A77G, 0. G27A U104C A117U: the self-cleavage came out at 1.25.

Turning to U26C U52C A64C C84A U87A A94G U112C, the self-cleavage turned out to be 0. As for U26C A59G A142G, the figure is 0.1; as for C28G A59G A138U, 0.84; as for U26G A30G G33A U52A G126A, 1.49. As for G27A A65G A138G, the figure is 0.07. The result for U26C G54U A78G U96C U130C reads 0; that for U29C A42G A77G, 2.3. As for U26C U46C U119A A124G, the self-cleavage was found to be 0. For the variant U26A A124G A142G, the self-cleavage came to 0.66. Take U26C U108C A140G: the self-cleavage was 1.34. With C28U U73A U91C U104C U143G, the self-cleavage amounted to 0.94.

On to G27A A69G U85A U119A A121G A129G, for which the self-cleavage stood at 0.22. Turning to U29A A30G G53U, the self-cleavage amounted to 1.5.

Turning to U26A A30G G44A, the self-cleavage was 0.77. As for U26C U81A U87C U91G, the figure is 0; as for U26A A121C U143A, 1.43. As for U29C A31G U108C, the figure is 0. On to G27A A65G U91C, for which the self-cleavage worked out at 0. As for U26C A43C C63U A138G, the figure is 0.55; as for U26A U45C U73C, 0.84; as for U26C G33U A142G, 1.1. In the case of U29C A30C U81A U102C, the self-cleavage came to 1.7. In the case of U26A G34A U87C U102C A124U, the self-cleavage came to 0.06. As for U29C A57G C84U, the figure is 0.05; as for U29A U62C C84U, 0.03. As for U26C A57G A138G, the figure is 1.72; as for U29C A57G A79G, 0.77; as for U26C A136G A141G, 1.44. As for C28U A65G U130C A142G, the figure is 0.06; as for G27A U115A A129G U143A, 0.55. Regarding U29C G40A A43G A57G A64U, the self-cleavage came to 0.37. Regarding U26A U47C A79G C120U U130C A142G, the self-cleavage was 1.19. With G27A A65C U134C, the self-cleavage amounted to 0.02.

For U26C U115C A140C, the self-cleavage came to 1.69.

Regarding C28G A42U A94G U115A A121G, the self-cleavage came to 0.14. As for U26C U45C A124U, the self-cleavage was found to be 2.35. As for U26C U73C G114A, the figure is 2.94; as for U26A A77U A136G, 0.46; as for U26C G32U U62C, 0.08. As for U26C G41U A57G U81C, the self-cleavage was found to be 0.68.

Regarding U26C U73A U112C, the self-cleavage is 2.07. In the case of G27U A65G A142G U143A, the self-cleavage turned out to be 0.07.

In the case of U26C A50U A141G, the self-cleavage was 0.41.

Consider U29C U52A A65C, for which the self-cleavage came to 0.08. As for C28U U85A A107U, the figure is 0.04; as for U26C U52G U87A U115C C146A, 0; as for U26C A92G A136G A140U, 0. For U26A A57G U132G, the self-cleavage was 0. As for U29A U109C A138G A142G, the figure is 1.49. The result for C28U A67G U143A reads 0.2.

Turning to C28A A30G U102C A124G, the self-cleavage came to 2.3.

With U26C G34A A79G A142G, the self-cleavage amounted to 0.16.

As for C28A A78G G106A U112C, the self-cleavage amounted to 1.04. As for G27A U100C A140G, the figure is 2.38; as for U26C A79U A94G, 0.12; as for U29C A30C U119C A140G A142U, 1.02. Take U29C U52G G70A: the self-cleavage was 0.28.

U29C U85C U100C: the self-cleavage was found to be 0. On to U26C A59G A107U, for which the self-cleavage came to 0.31. As for C28U G40A U119A, the figure is 1.03; as for U26C U100C G105A, 1.78. Consider U29C A94G U132A, for which the self-cleavage turned out to be 0.23. For the variant U29C U85G U115C G125A A138G, the self-cleavage is 1.29. For U26C A43U A124G, the self-cleavage amounted to 1.51. As for U29C A43C A142U, the figure is 2.37; as for U26A A79G C118U A142G, 0.78. In the case of U29C A30U U100A, the self-cleavage turned out to be 1.28.

Turning to G27A A57U U81A U130C, the self-cleavage was found to be 0.09. As for U29C U47C G54U A117U, the figure is 1.28; as for U29A A31U U47C A64G, 0.

As to G27A U45C U52C A67U, the self-cleavage was 0.07. Regarding G27A A42U G44U U115C, the self-cleavage turned out to be 0.96. The result for U26A A43G A77G U130G reads 0.88. As for U26C A77G A107U, the figure is 0.38; as for C28G U46C U119C, 1.21.

For U26C U46C U115C A141G, the self-cleavage stood at 2.3. In the case of U29C A59G U85C, the self-cleavage stood at 0.

C28A A43G C63U A79G U81C A92G: the self-cleavage came to 0.15.

With U29A G49A A141G, the self-cleavage came to 0. As for U29A A57G A79G U91C C133A, the figure is 1.02; as for G27A A50G U62A A79U, 0. As for U26A A31G G105A, the figure is 0.94. On to U26G U39A G74A U115G, for which the self-cleavage was 0.9.

In the case of U26A U45C A67G U112C A121U, the self-cleavage was 0.54. As for U26C A43G A67G A140G, the figure is 0; as for U26A U85C A138G, 0.15. As for U26A U47A U52C U143C, the figure is 1.12; as for U29C U39A A59G U96C, 0.18. Turning to U29C G55C A57U A65G, the self-cleavage worked out at 0. The result for C28U G41U U134C reads 1.59; that for U26A A78U U108C, 2.26; that for C28G C38U C71A U100C A107G U112C A136G, 0.76. On to G27A G75U U119C A124G A129G, for which the self-cleavage was determined as 0.2.

The record behind these values is the RNAGym collection of RNA variant scans (doi:10.7554/elife.90254).
